{"source": "PubChem BioAssay (NCI)", "note": "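The compound was tested at five concentrations on cells cultured in 96-well plates, with a 48-hour exposure period. At the GI50, growth is halved. At the TGI there is no net growth.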 Square brackets hold non-standard residues; d marks the D form. Peptide text beside a SMILES is read from it. * marks the point of attachment. NMeF = CN[CH](Cc1ccccc1)C(=O)O; NMeV = CN[CH](C(=O)O)C(C)C; Boc = CC(C)(C)OC(=O)*; OBn = c1ccc(CO*)cc1"}
{"test_system": "NCI-H322M lung", "test": "inhibition of tumour cell growth, NCI panel, 48 h"}
{"smiles": "NC(=O)c1c(NC(=O)c2cccs2)sc2c1CCC(=O)C2", "GI50": "7.89 µM", "TGI": "> 100 µM"}
{"smiles": "CNC(=O)ON(C(C)=O)C(=O)NC", "TGI": "221 µM"}
{"smiles": "Cc1cccc(NC(=O)C(=O)C(C2OC(=O)c3ccccc32)[N+](=O)[O-])c1C", "note": "(centres undefined)", "TGI": "29.8 µM"}
{"smiles": "COC(=O)C1C(C(=O)O)C2(c3ccccc3)C(=O)C1(c1ccccc1)C(c1ccccc1)=C2c1ccccc1", "note": "(centres undefined)", "GI50": "28.3 µM", "TGI": "63.3 µM"}
{"smiles": "COC(=O)c1c[nH]c2cc(OC(C)C)c(OC(C)C)cc2c1=O", "GI50": "> 100 µM", "TGI": "> 100 µM"}
{"smiles": "CN1CCN(CCCNC(=O)c2c3c(n4ccccc24)C(=O)c2ncccc2C3=O)CC1", "GI50": "1.47 µM", "TGI": "8.81 µM"}
{"smiles": "C/C=C/C(=O)Oc1cccc2cccnc12", "TGI": "> 88.2 µM"}
{"smiles": "CCOC(=O)C1=C(OC(OCC)C([Se]c2ccccc2)C(C)C)CCC1", "note": "(centres undefined)", "TGI": "> 100 µM"}
{"smiles": "N#Cc1c2ccccc2c(Cc2ccc3c(c2)OCCOCCOCCOCCOCCO3)c2ccccc12", "TGI": "29.3 µM"}
{"smiles": "COC(=O)[C@@H]1CN(C(=O)CCc2ccccc2)C(=O)N1", "TGI": "> 100 µM"}
{"smiles": "O=C(Oc1ccccc1)N(c1ccccc1)c1ccccc1", "GI50": "61.2 µM", "TGI": "> 100 µM"}
{"smiles": "COC(=O)c1cc(CC2Cc3cc4c(cc3C2=O)CCC4)cc2c1CCC2", "note": "(centres undefined)", "TGI": "> 100 µM"}
{"smiles": "Nc1ccccc1C#C/C=C\\C#Cc1ccccc1C#CCO", "GI50": "2.22 µM", "TGI": "13 µM"}
{"smiles": "O=C1C=C(c2ccccc2)OC1C1Sc2ccccc2NC1=O", "note": "(centres undefined)", "TGI": "> 100 µM"}
{"smiles": "COC(=O)/C=C/CCC#Cc1ccccc1C#CCC/C=C/C(=O)OC", "TGI": "> 100 µM"}
{"smiles": "N#Cc1c(Cl)cc(C#N)n2c1nc1ccccc12", "TGI": "63 µM"}
{"smiles": "CN1CCC2(CC1)N=C(SCC(=O)Nc1cnc3ccccc3c1)C(c1ccc(Br)cc1)=N2", "GI50": "3.18 µM", "TGI": "12.7 µM"}
{"smiles": "C=C1CC(OC)(C(OC)C(=O)N[C@H]2OCO[C@H]3C2O[C@H](C[C@@H](COC)OC)C(C)(C)C3OC)O[C@H](C)[C@@H]1C", "note": "(some centres undefined)", "TGI": "9.36 µM"}
{"smiles": "CN(C)[C@@H]1C(=O)C(C(=O)NCNc2nc3n[nH]nc3c(=O)[nH]2)=C(O)[C@@]2(O)C(=O)C3=C(O)c4c(O)cccc4[C@@](C)(O)[C@H]3C[C@@H]12", "TGI": "> 100 µM"}
{"smiles": "COc1ccc(Oc2nc3cc(N)cc(N)c3nc2-c2ccccc2)cc1", "GI50": "> 100 µM", "TGI": "> 100 µM"}
{"smiles": "Cn1nnc2c(C(N)=S)ncn2c1=O", "TGI": "> 100 µM"}
{"smiles": "CCO/C(O)=C(/C(=N)N1CCOCC1)C(=O)NC(C)C", "TGI": "> 100 µM"}
{"smiles": "C/C=C/c1cc2c(cc1O)CC[C@@H]1[C@@H]2CC[C@]2(C)[C@@H](O)CC[C@@H]12", "TGI": "16 µM"}
{"smiles": "COc1cc(C(=O)/C=C/c2cc(-c3ccc4c(c3)OCO4)n[nH]2)cc(OC)c1OC", "GI50": "2.1 µM", "TGI": "6.25 µM"}
{"smiles": "C=C(C)C1CC[C@@](C)(O)[C@H](C#N)C1", "note": "(some centres undefined)", "TGI": "> 100 µM"}
{"smiles": "CC(=O)[CH-]C(=O)c1ccccc1.CC(=O)[CH-]C(=O)c1ccccc1.Cl.[O-]c1ccnc2ccccc12.[O-]c1ccnc2ccccc12.[Ti+4]", "GI50": "72.8 µM", "TGI": "> 100 µM"}
{"smiles": "CC(C)C(NC(=O)OC(C)(C)C)C(=O)N(C)C(Cc1ccccc1)C(=O)N(C)C(C(=O)OCc1ccccc1)C(C)C", "note": "(stereo not drawn) (Boc-Val-[NMeF]-[NMeV]-OBn; configuration not given here)", "TGI": "> 100 µM"}
{"smiles": "Cc1nc2nc(C)n(CCN3CCOCC3)c(=O)c2c(-c2cccc([N+](=O)[O-])c2)c1C(=O)CCCCCCCCCCN1CCC(c2ccccc2)(c2ccccc2)CC1", "GI50": "2.02 µg/mL", "TGI": "3.97 µg/mL"}
{"smiles": "Cc1ccc(N2C(=O)C3c4[nH]c5ccc(C)cc5c4C4CCC(C(C)(C)C)CC4C3C2=O)cc1", "note": "(centres undefined)", "TGI": "> 100 µM"}
{"smiles": "COc1ccc(Cc2cc(Cc3ccc(OC)cc3)cc(Cc3ccc(OC)cc3)c2)cc1", "TGI": "> 100 µM"}
{"smiles": "Cc1nc2sc(C(=O)Nc3cccc(Br)c3C)c(N)c2cc1C(O)c1ccccc1", "note": "(centres undefined)", "GI50": "0.067 µM", "TGI": "38.4 µM"}
{"smiles": "O=C(OCc1ccccc1)C(Cc1ccc(OCc2ccccc2)cn1)NC(=O)C(F)(F)F", "note": "(centres undefined)", "TGI": "> 100 µM"}
{"smiles": "c1ccc(-c2[nH]ncc2-c2ccnc(-c3ccc(OCCN4CCOCC4)cc3)c2)nc1", "GI50": "> 25 µM", "TGI": "> 25 µM"}
{"smiles": "Cc1sc(C(=O)c2cncnc2N[C@@H]2C[C@H](COS(N)(=O)=O)[C@@H](O)C2)cc1[C@@H]1NCCc2ccc(Cl)cc21", "GI50": "11.5 µM", "TGI": "23.8 µM"}
{"smiles": "CC1(C)c2ccccc2N2C(c3ccccc3)=NOC21C", "note": "(centres undefined)", "TGI": "> 100 µM"}
{"smiles": "COc1ccc(OC)c(Nc2nc3nonc3nc2Nc2cccc(Br)c2)c1", "GI50": "2.32 µM", "TGI": "81.5 µM"}
{"smiles": "C=C1C(=O)O[C@H]2[C@H]1CC/C(COC(=O)c1cccnc1N)=C\\CC[C@@]1(C)O[C@@H]21", "GI50": "10.5 µM", "TGI": "26.2 µM"}
{"smiles": "COc1cc(-c2nn(-c3ccc(NC(=O)Nc4cc(C(F)(F)F)cc(C(F)(F)F)c4)cc3)cc2-c2ccncc2)ccc1Cl", "GI50": "2.3 µM", "TGI": "6.09 µM"}
{"smiles": "COc1ccc(Cn2cc(COc3cc(/C=C/C(=O)c4cc(OC)c(OC)c(OC)c4)ccc3OC)nn2)cc1", "GI50": "3.13 µM", "TGI": "32.4 µM"}
{"smiles": "CC1(C)CC[C@]2(C(=O)O)CC[C@]3(C)C(=CCC4=C5C[C@H](O)[C@H](O)[C@@](C)(CO)[C@@]5(C)CC[C@]43C)[C@@H]2C1", "TGI": "> 100 µM"}
{"smiles": "COC(=O)c1c(O)ccc(O)c1C(C(C)=O)C(C)=O", "TGI": "> 100 µM"}
